About 18,000 (5.8%) of roughly 310,000 compounds were called active. The shares of active, inactive and inconclusive entries below differ from those in the screen. The call rests on the fitted dose curve; in most records, active means well fitted inhibition curve with a large enough effect; inconclusive means small, poorly fitted or top-dose-only effect, or another doubt; inactive means no such curve, though single readings can be large or run the other way. No potency is given beside an inconclusive call; the fits are too rough.
test: Primary qHTS for delayed death inhibitors of the malarial parasite plastid, 48 hour incubation; settings: P. falciparum luciferase growth in erythrocytes; series mostly up to 28.7 µM; activity change, negative = inhibition: at the top concentration
In short: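 Firefly luciferase activity from engineered P. falciparum reports growth; inhibitors lower the luminescent signal. Cultures contained 2% hematocrit erythrocytes at 0.1% final parasitemia.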
On the % scale 0 is the no-effect control and ±100 the full control effect; potency means the concentration at half of the fitted maximal effect; tags describe the fitted curve by direction and shape.

Row | Structure (SMILES) | Potency | activity change, negative = inhibition
1 | O=C(Nc1cc(S(=O)(=O)N2CCOCC2)ccc1-n1cncn1)c1ccc(Cl)cc1 | inconclusive [inhibitor, single point] | 
2 | COc1cc(CNCCc2c[nH]c3ccccc23)cc(Cl)c1OCC(N)=O | inconclusive [inhibitor, single point] | 
3 | CC(=O)Nc1ccc(N2CCCC(C)C2)c([N+](=O)[O-])c1 (centres undefined) |  | inactive: -18.6%
4 | CC1(C)CN(c2ccccc2)N(Cc2ccc(F)cc2)C1=O | inconclusive [inhibitor, full curve, poor fit] | 
5 | COc1ccc(N(CC(=O)NCc2ccc(Cl)cc2)S(=O)(=O)c2c(C)noc2C)cc1 | inconclusive [inhibitor, partial curve] | 
6 | O=C(NNC1=Nc2cccc3cccc1c23)c1ccc(Br)cc1 | active: 11.7 µM | 
7 | Cn1nc(C(=O)Nc2nc(-c3ccccn3)cs2)c2ccccc2c1=O | active: 4.15 µM | 
8 | COc1ccc(OS(=O)(=O)c2c(C)noc2C)cc1 |  | inactive: -21.2%
9 | COc1ccc2ccccc2c1CNCc1ccc(C)cc1 | inconclusive [inhibitor, single point] | 
10 | CC(C)=C1SC(N2CCN(Cc3ccccc3)CC2)=NC1=O | inconclusive [inhibitor, partial curve] | 
11 | COc1ccc(NS(=O)(=O)c2ccc(C)c(NC(=O)c3ccc(C)c(S(=O)(=O)N4CCOCC4)c3)c2)cc1 | inconclusive [inhibitor, partial curve] | 
12 | Cc1nc2oc3ccc(F)cc3c(=O)c2cc1C(=O)O |  | inactive: 48.8%
13 | COc1ccc(C2Nc3ccccc3C(=O)N2c2ccccc2)cc1COc1ccccn1 (centres undefined) | inconclusive [inhibitor, partial curve] | 
14 | COc1ccc(OCC(=O)Nc2ccc(N3CCC(C)CC3)cc2)cc1 | inconclusive [inhibitor, single point] | 
15 | COc1ccc([N+](=O)[O-])cc1N(CC(O)CN(C)C)S(=O)(=O)c1ccccc1 (centres undefined) |  | inactive: -1.54%
16 | O=[N+]([O-])C(/C=C(/Cl)[N+](=O)[O-])=C(N1CCCCC1)N1CCCCC1 | active: 8.28 µM | 
17 | O=C1NCCN(Cc2cccc(Oc3ccccc3)c2)C1CC(=O)N1CCCCO1 (centres undefined) | inconclusive [inhibitor, single point] | 
18 | Cc1[nH]c2ccccc2c1/C=N/Nc1ccccc1[N+](=O)[O-] | inconclusive [inhibitor, single point] | 
19 | c1ccc(-c2nnc(-c3ccccn3)nc2NC2CCCCC2)cc1 | active: 0.928 µM | 
20 | CCOC(=O)C1(c2ccccc2)CCN(CCC(C#N)(c2ccccc2)c2ccccc2)CC1 | active: 1.9 µM | 
21 | CCOC(=O)c1cc(C)sc1NC(=O)CN1CCN(C(=O)C2CCCO2)CC1 (centres undefined) | inconclusive [inhibitor, single point] | 
22 | COc1cc(CNc2cc(C)ccc2C)cc(OC)c1OC | active: 5.22 µM | 
23 | O=C(C1CCN(C2CCN(CC3CC=CCC3)CC2)CC1)N1CCOCC1 (centres undefined) |  | inactive: -11.4%

Row | Structure (SMILES) | Potency | activity change, negative = inhibition
24 | Cc1cccc(N2CCN(S(=O)(=O)c3cccs3)CC2)c1C | inconclusive [inhibitor, single point] | 
25 | CCCCc1c(O)nc(SCC(=O)NCCc2ccc(OC)c(OC)c2)[nH]c1=O |  | inactive: 27.5%
26 | O=C1/C(=C\c2ccc3c(c2)OCO3)CCC/C1=C/c1ccc2c(c1)OCO2 |  | inactive: 3.34%
27 | CCc1ccc(-c2cc(C)no2)cc1S(=O)(=O)N1CCN(c2cccc(C)c2C)CC1 | active: 5.22 µM | 
28 | Nc1nc(NCCOCCO)nc(NC2CCCCC2)c1[N+](=O)[O-] | inconclusive [inhibitor, partial curve] | 
29 | N#Cc1ccsc1NC(=O)CN1CCN(S(=O)(=O)c2cc(Cl)ccc2Cl)CC1 | inconclusive [inhibitor, partial curve] | 
30 | CC(C)c1nnc(NC(=O)CCC(=O)NCc2ccc(F)cc2)s1 | inconclusive [inhibitor, partial curve, poor fit] | 
31 | Cc1ccc(Cl)c(OCC(=O)Nc2ccc3c(c2)OCCO3)c1 |  | inactive: 113%
32 | CCC(c1nnnn1C1CCCC1)N(Cc1cccs1)Cc1cc2cccc(C)c2[nH]c1=O (centres undefined) | active: 10.4 µM | 
33 | Cc1ccc(CCN2CC(C(=O)NCCCN3CCC(C)CC3)CC2=O)cc1 (centres undefined) | inconclusive [inhibitor, partial curve, poor fit] | 
34 | O=C(CNc1ccc(Cl)cc1)c1ccc(Br)cc1 | inconclusive [inhibitor, partial curve, poor fit] | 
35 | Cc1cc(-c2csc(N)n2)c(C)n1Cc1ccccc1 | active: 11.7 µM | 
36 | COc1cc(/C=C2\CC(C(C)(C)C)C/C(=C\c3cc(OC)c(OC)c(OC)c3)C2=O)cc(OC)c1OC (centres undefined) | inconclusive [inhibitor, full curve] | 
37 | CC(=O)NCCC(=O)Nc1cc(S(=O)(=O)N2CCOCC2)ccc1Oc1ccc(F)cc1 | inconclusive [inhibitor, single point] | 
38 | O=C(CCCn1c(=O)[nH]c2ccsc2c1=O)NC1CCCCC1 | inconclusive [inhibitor, partial curve, poor fit] | 
39 | CC(=S)/C=C1\Sc2ccccc2N1C | inconclusive [inhibitor, single point] | 
40 | Cc1ccc(C)c(N2CCN(S(=O)(=O)c3c(C(=O)N4CCCCC4)c(C)n(C)c3C)CC2)c1 | inconclusive [inhibitor, single point] | 
41 | O=c1ccc(Oc2nc(N3CCOCC3)nc(N3CCOCC3)n2)n[nH]1 |  | inactive: -5.18%
42 | CCN(CC(=O)NC(=O)NCc1ccco1)Cc1nc2ccccc2c(=O)[nH]1 | inconclusive [inhibitor, partial curve, poor fit] | 
43 | COc1cccc(N2CCN(c3ncnc4c3[nH]c3ccc(F)cc34)CC2C)c1 (centres undefined) | inconclusive [inhibitor, partial curve, poor fit] | 
44 | CC(=O)NCCC(=O)N(C)CC1CCN(CCc2cccc(C(F)(F)F)c2)CC1 |  | inactive: -34.4%
45 | CCN(CC)S(=O)(=O)c1cccc(-c2nnc(SCCOc3ccccc3C)o2)c1 | inconclusive [inhibitor, single point] | 
46 | COCCCNC(=S)NNC(=O)c1cccnc1 |  | inactive: 25.9%

Row | Structure (SMILES) | Potency | activity change, negative = inhibition
47 | COC(=O)Cc1c(C)c2ccc(OCC(C)=O)c(C)c2oc1=O |  | inactive: 171%
48 | CCC(C)[C@H]1CNC(=S)N1CCc1cc(C(F)(F)F)cc(C(F)(F)F)c1 (some centres undefined) | inconclusive [inhibitor, full curve, poor fit] | 
49 | CCn1c(CNc2ccc(C)cc2C)nnc1SCC(=O)N1CCCc2ccccc21 | inconclusive [inhibitor, single point] | 
50 | CC(C)CCNC(=O)C1(c2cccs2)CCOCC1 |  | inactive: -7.15%
51 | O=C(Nc1ccc(N2CCOCC2)cc1N1CCOCC1)c1ccc(Br)cc1 | inconclusive [inhibitor, full curve, poor fit] | 
52 | CN1CCN(CCCNC(=O)CCN2C(=O)COc3ccccc32)CC1 |  | inactive: -5.89%
53 | CCOc1ccc(-c2c(=O)n(OCc3ccc([N+](=O)[O-])cc3)c3ccccc3[n+]2[O-])cc1 |  | inactive: 40%
54 | O=C1NC(=O)C2(Cc3c(nc4ccccn4c3=O)N3CCCCCC32)C(=O)N1Cc1ccccc1 (centres undefined) | inconclusive [inhibitor, full curve, poor fit] | 
55 | Cc1ccc(C(C(=O)NC(C)(C)C)N(Cc2cccs2)C(=O)c2ccc3c(c2)OCCO3)cc1 (centres undefined) | inconclusive [inhibitor, single point] | 
56 | COC(=O)c1cccc(NC(=O)c2ccc3c(c2)C(=O)N(Cc2cccnc2)C3=O)c1 |  | inactive: 15.4%
57 | Cc1cccc(/C=N/NC(=O)c2ccc(NC(=O)c3ccc(F)cc3)cc2)n1 | inconclusive [inhibitor, single point] | 
58 | O=C(c1cccs1)N1CCN(Cc2cn[nH]c2-c2ccc(F)cc2F)CC1 | inconclusive [inhibitor, single point] | 
59 | COc1cc(/C=N/OCC(=O)NC23CC4CC(CC(C4)C2)C3)ccc1OCc1ccccc1 | inconclusive [inhibitor, single point] | 
60 | Cc1ccc(NC(=O)C2CCCN(c3ncnc4c3nc3n4CCCCC3)C2)cc1Cl (centres undefined) | inconclusive [inhibitor, single point] | 
61 | Cc1ccnc(NC(c2cccnc2)c2ccc3cccnc3c2O)c1 (centres undefined) | inconclusive [inhibitor, full curve] | 
62 | COC(=O)c1ccc(C(=O)OC)nc1 |  | inactive: 35.2%
63 | Cc1ccc(NC(=O)COC(=O)COc2cccc3c2OC(C)(C)C3)cc1C | inconclusive [inhibitor, full curve, poor fit] | 
64 | CC(=C\c1ccccc1)/C=C1/SC(=S)N(C(C(=O)O)C(C)C)C1=O (centres undefined) |  | inactive: 18%
65 | COc1cc2c(cc1OC)CN(C(=O)c1ccc(S(=O)(=O)N3CCCCC3)cc1)CC2 | inconclusive [inhibitor, single point] | 
66 | CC(C)c1ccc(S(=O)(=O)N2CCN(C(C)C(=O)N3CCCC3)CC2)cc1 (centres undefined) | inconclusive [inhibitor, single point] | 
67 | O=C(Nc1nc(-c2cc(Cl)sc2Cl)cs1)c1cccs1 | inconclusive [inhibitor, single point] | 
68 | Nc1c(Cl)cc(C2=NCCn3c2c2ccccc2[n+]3[O-])cc1Cl | inconclusive [inhibitor, single point] | 
69 | Cn1c(=O)[nH]c(=O)c2c1nc(Br)n2CCSc1ncccn1 | inconclusive [inhibitor, partial curve, poor fit] | 

— PubChem BioAssay AID504832 (National Center for Advancing Translational Sciences (NCATS), 2011)
